Several values for one entry are separate records, joined by “and”; a condition that tells them apart may be missing. Equal values may be shown once. Over roughly 5,400 compounds, “IFI” has its median near 2; the highest 2% begin near 22. The list shows a part of the results.
Assay: NOVARTIS: Inhibition Frequency Index (IFI) - the number of HTS assays where a compound showed > 50% inhibition/induction, expressed as a percentage of the number of assays in which the compound was tested.
Format: functional

Compound | IFI
COc1ccc(C2CC(=O)C3=C(C2)NC(C)=C(C(=O)OC2CCCC2)C3c2ccccc2Cl)cc1OC (stereo not given) | 5.95%
ClC12CC3CC(C1)CC(n1nnc4ccccc41)(C3)C2 | 1.47%
Cc1c(NC(=S)N2CCOCC2)c(=O)n(-c2ccccc2)n1C | 0%
Cn1nc(C(=O)NCc2ccccc2)c2c1CCN(Cc1cccc(O)c1)C2 | 1.22%
CCCCCCC1CCC(O)(C(C)(O)C(=O)NC2C(=O)N3NCCCC3C(=O)N(O)C(COC)C(=O)NCC(=O)N3NCCCC3C(=O)N(O)C(C)C(=O)OC2C)OC1C (stereo not given) | 39.3%
Cc1nc(N2CCN(C)CC2)c2c(C)c(C(=O)NCCN(C)C)sc2n1 | 1.12%
Cc1cc(C)n(-c2ccc(NC(=O)C3CCN(Cc4ccncc4)CC3)cc2)n1 | 0%
COc1ccc(CC(=O)N(CCCC(C)Nc2cc(OC)cc3cccnc23)Cc2ccc(OC)c(OC)c2)cc1 (stereo not given) | 3.7%
c1cncc(-c2cc(N3CCc4ccccc4C3)nc(-c3ccncc3)n2)c1 | 0%
CC(C)NC(=O)N1CCN(C(=O)COC(c2cccs2)c2cccnc2Cl)CC1 (stereo not given) | 1.94%
COCCCNc1nc2cc(OC)c(OC)cc2c2nc(-c3ccccc3)nn12 | 0%
Cc1ccc2nc3c(c(Nc4ccc(N(C)C)cc4)c2c1)CCC3 | 1.06%
CCOC(=O)c1cccc(NC(=O)CC2C(=O)N(c3ccc(F)cc3)C(=O)N2CCC(C)C)c1 (stereo not given) | 0%
COc1ccc2c(C)nc(Nc3nc(C)cc(-c4ccccc4)n3)nc2c1 | 0%
NCCCCCCNc1ccnc2cc(Cl)ccc12 | 1.91%
CN(CCCNc1ccnc2cc(Cl)ccc12)S(=O)(=O)c1ccc([N+](=O)[O-])cc1 | 5.5%
CCCCCCN(C(=O)c1ccc2c(c1)OCO2)C(CC)c1nc2ccccc2c(=O)n1-c1ccccc1OC (stereo not given) | 0.971%
c1ccc2cc3c(NCCN4CCOCC4)ccnc3cc2c1 | 0%
CC1CC2(C)Oc3ccccc3CC2C(C)C1CNCCCN(C)C (stereo not given) | 9.23%
O=C(N1CCN(c2ccc(C(F)(F)F)cc2[N+](=O)[O-])CC1)C(Cl)(Cl)Cl | 0%
Oc1nc(-c2ccccn2)nc(C(F)(F)F)c1Br | 8.77%
Cc1cc(N2CCN(C3CCCCC3)CC2)n2c(nc3ccccc32)c1C#N | 2.88%
O=[N+]([O-])c1cc(C(F)(F)F)ccc1N1CCCN(C(=S)Nc2ccccc2)CC1 | 3.36%
Cc1c(Cc2ccccc2)sc(N=Cc2ccc(Br)s2)c1C(N)=O | 5.56%

Compound | IFI
Cc1nn(C)cc1-c1nc2cnccn2c1NCC1CCCO1 (stereo not given) | 0%
Clc1ccc(OCc2nc3ccccc3n2CCc2ccccc2)cc1 | 6.25%
O=Cc1c(OCc2ccc(Cl)cc2Cl)ccc2ccccc12 | 5.63%
CCCCNC(=S)N(Cc1cccs1)Cc1cc2cc(C)ccc2[nH]c1=O | 1.82%
CCOC(=O)C1(CC2CCCCO2)CCN(C(=O)Nc2cccc(SC)c2)CC1 (stereo not given) | 0%
O=S(=O)(NC1CCCC1)c1cccc2nonc12 | 0%
CC[n+]1c(/C=C/C=C2\N(C)c3ccccc3C2(C)C)n(CCCOC(C)=O)c2ccccc21 | 14.3%
COc1cc2nc(CN(C)C(C)c3cccs3)nc(N3CCCC3)c2cc1OC (stereo not given) | 0%
O=C(Nc1cc(C(F)(F)F)cc(C(F)(F)F)c1)Nc1ccc2nnsc2c1 | 12.8%
CS[C@H]1SC[C@H]2C(=O)N(C)[C@@H](C(C)C)C(=O)OC[C@@H](NC(=O)c3cnc4ccccc4n3)C(=O)N[C@@H](C)C(=O)N(C)[C@@H]1C(=O)N(C)[C@@H](C(C)C)C(=O)OC[C@@H](NC(=O)c1cnc3ccccc3n1)C(=O)N[C@@H](C)C(=O)N2C | 34.6%
CCOc1ccc(-n2c(=S)sc3c(=O)n(-c4ccc(C)cc4)c(SCC(=O)Nc4cc(OC)ccc4OC)nc32)cc1 | 0%
CN1CCc2c(sc3nc(SCC(=O)NCCc4ccccc4)n(-c4ccc(Cl)cc4)c(=O)c23)C1 | 12.5%
COc1ccc(OC)c(CN2CCC3(CC2)CC3C(=O)NCCc2ccccc2OC)c1 (stereo not given) | 0%
CC(C)(C)CC(C)(C)Nc1c(-c2ccccc2OC(=O)c2ccco2)nc2ccccn12 | 4.76%
Brc1ccc(-c2n(Cc3ccccc3)c3ccccc3[n+]2Cc2ccccc2)o1 | 15.4%
CCOc1cc2c(cc1OCC)C(c1cc(OC)c(O)cc1Cl)NCC2 (stereo not given) | 0%
CCOc1ccc(-c2cn3c([n+]2Cc2ccccc2)SCCC3)cc1 | 15.4%
O=C(Nc1cc(C(F)(F)F)cc(C(F)(F)F)c1)Nc1ccc(Cl)c(Cl)c1 | 18.8%
Cc1cc(C)c(NC(=S)N(CCCN2CCCCC2)Cc2cccs2)c(C)c1 | 0%
COC(=O)c1ccc2c(=O)n(Cc3ccco3)c(SCC(=O)n3nc(N)cc3C)nc2c1 | 0%
CCOCCCNC(=O)C1CCCN(S(=O)(=O)c2ccc(C)cc2)C1 (stereo not given) | 6.76%
CCCCCCN(C(=O)Nc1ccccc1OC)C(C)c1nc2ccccc2c(=O)n1-c1ccccc1OCC (stereo not given) | 2.78%
CCOc1ccccc1-n1c(N)c(C(=O)Nc2ccc(F)cc2)sc1=S | 0%
CCOc1ccc(N2C(=O)c3ccccc3NC2(C)C)cc1 | 4.62%

Compound | IFI
CCN(CC)CCCN(Cc1cc2cc(OC)ccc2[nH]c1=O)C(=S)Nc1cccc(Cl)c1 | 8.04%
CC[n+]1c(/C=C/c2ccc(OC)cc2)ccc2ccccc21 | 5.11%
Cc1ccc(COc2ccc3c(C#N)c4ccccn4c3c2)cc1 | 7.29%
COc1ccccc1Cn1c(SCC(=O)Nc2cccc(C(F)(F)F)c2)nc2ccc(Br)cc2c1=O | 4.35%
CC(=O)N1c2ccc([N+](=O)[O-])cc2C(C)(c2ccccc2)CC1(C)C (stereo not given) | 0%
CCCC(C(=O)NCCC(C)C)N(C(=O)c1snc(C(N)=O)c1N)c1ccc(C(C)C)cc1 (stereo not given) | 4.84%
Cc1ccc(Nc2nc3nonc3nc2N(C)C)cc1Cl | 0%
COC(=O)c1ccc(C2C3=C(O)CC(c4ccc(C)cc4)CC3=Nc3ccccc3N2C(=O)c2cccs2)cc1 (stereo not given) | 4.88% and 0%
CCc1ccc(C(=O)N(CC(=O)Nc2cc(C(C)(C)C)nn2-c2ccc(Cl)c(Cl)c2)C(C)C)cc1 | 2.1%
O=C(COc1ccccc1Cl)OCc1cc(=O)n2nc(C3CC3)sc2n1 | 0%
CCCCCCN(C(=O)c1cccc(F)c1)C(CC)c1nc2ccccc2c(=O)n1-c1ccccc1OC (stereo not given) | 2.73%
CCCNC(=O)N1CCC2(CC1)CC(=O)c1cc(C)ccc1O2 | 0%
c1ccc(Cc2nc(NCc3ccc4c(c3)OCO4)c3c4c(sc3n2)CCCC4)cc1 | 1.16%
Cc1cccc(NC(=O)C2C3C=CC4(O3)C2C(=O)N(CC2COc3ccccc3O2)C4C(=O)NC2CCCC(C)C2C)c1 (stereo not given) | 0%
Fc1ccc(CNc2ccnc3cc(Cl)ccc23)cc1 | 6.33%
O=C(Cc1cccs1)N1CCN(c2ccccn2)CC1 | 2.35%
CN(C)c1ccc(/C=C/C(=O)NC(=O)c2ccccc2OC(=O)c2ccccc2)cc1 | 8.33%
COc1cccc2c1OCC(C(=O)Nc1ccc(C)cc1)=C2 | 11.4%
CCn1c(SCC(=O)Nc2ccc(OC)cc2)nc2ccsc2c1=O | 0%
COc1ccc(Cn2c(=S)[nH]c3ccsc3c2=O)cc1 | 2.3%
CN(CCCNc1ccnc2cc(Cl)ccc12)C(=O)c1ccc(C(F)(F)F)cc1 | 2.73%
Cc1ccn2c(NC(C)(C)CC(C)(C)C)c(-c3ccccc3OC(=O)c3ccc4c(c3)OCO4)nc2c1 | 2.8%
O=C(O)c1c(F)cccc1Cl | 0%
CCN(CC)CCCN(Cc1cc2cc3c(cc2[nH]c1=O)OCCO3)C(=S)Nc1cccc(Cl)c1 | 6.9%

Compound | IFI
Clc1ccc(-c2c[n+](Cc3ccc(Cl)c(Cl)c3)c3n2CCC3)cc1 | 2.38%
COc1cc2c(c(OC)c1CN1CCN(c3ccccc3)CC1)C(=O)c1ccccc1C2=O | 15.4%
CCCN(CCC)CCCNc1ccc(C(=O)Nc2ccc(C)c(F)c2)cc1[N+](=O)[O-] | 0%
NC(=O)NN=C1c2cc(S(=O)(=O)NCc3ccco3)ccc2-c2ccc(S(=O)(=O)NCc3ccco3)cc21 | 0%
O=C1CCC(=O)N1c1ccc(CSc2nc3ccccc3[nH]2)cc1 | 0%
Cc1cc(Nc2ccc(C)c(Cl)c2)n2ncnc2n1 | 0%
COc1cc(OC)cc(N2CCN(CCNCCOc3ccccc3)[C@@H](c3ccccc3)C2)c1 | 4.94%
COc1ccccc1CNC(=O)CCn1c(=O)[nH]c2ccccc2c1=O | 1.67%
O=C(CSc1nc2ccccc2c(=O)n1-c1ccc(C(=O)N2CCOCC2)cc1)c1ccccc1 | 0%
Cc1ccc(CN2CCN(Cc3cn(C(C)C)c4ccccc34)CC2CCO)o1 (stereo not given) | 0%
CC(C)(C)c1ccc(C2CC3=Nc4ccccc4N(C(=O)c4ccccc4Cl)C(c4ccc(F)cc4)C3=C(O)C2)cc1 (stereo not given) | 7.14%
COc1cc(CNc2ccc(N3CCCCC3)cc2)cc(Cl)c1OCc1ccc(F)cc1 | 5.56%
c1cc2cc(CN3CCc4nc(N5CCCCC5)sc4C3)ccc2[nH]1 | 4.17%
Cc1cc(CNC(=O)CC2C(=O)NCCN2Cc2ccccc2C(F)(F)F)nn1C (stereo not given) | 0%
C=CCN1C=CC(=Cc2sc3ccccc3[n+]2C)c2ccccc21 | 17.6%
Cn1c(=O)c2c(nc(N3CCN(C(=O)Nc4ccc(F)cc4F)CC3)n2C)n(C)c1=O | 0%
COc1ccc(C2CC(=O)C3=C(C2)NC(C)=C(C(=O)OC2CCCC2)C3c2ccccc2F)cc1OC (stereo not given) | 5.88%
Cc1cc(C)nc(NC(=N)Nc2cccc(O)c2)n1 | 1.05%
CC(C)NC(=O)c1ccc2c(c1)N=C(/C=C/c1ccccc1)N(CC1CCCCC1)C2 | 6.17%
O=C(C1CCC1)N1CCOc2c(cc(-c3csc4ccccc34)cc2OCCc2ccccn2)C1 | 2%
Cc1ccc(-c2noc(C3CCN(C(=O)Nc4ccc(C#N)cc4)CC3)n2)o1 | 0%
COc1cc(C2C(C(=O)OCC(C)C)=C(C)NC3=C2C(=O)CC(c2ccccc2)C3)cc(Br)c1O (stereo not given) | 4.65%
O=C1C(NC2CCCCC2)=C(N2CCOCC2)C(=O)c2ccccc21 | 3.76%

Source: ChEMBL document CHEMBL1156829
